According to PubChem BioAssay AID2060509 (Molecular Pharmacology Branch, DTP, NCI, 2025):
The source holds more than one record for some entries. This is not the full list of results. The source may hold further records. Results that share an entry repeat one measurement in other runs, samples, wells, individuals or studies. Additions like (4×) stand for listed records that agree.

System: 485176-168-R4-J1-PDC spheroids with HUVEC/MSC, viability
Test: Anticancer human tumor 485176-168-R4-J1-PDC patient-derived pancreatic adenocarcinoma cell line growth inhibition [GQUAD]
Details: stronger effect = lower value
Source text: DNA G-quadruplex Stabilizer Agents in Combinations in Complex Spheroids
A high-throughput screen of multi-cell type tumor spheroids was designed to identify active combinations of DNA G-quadruplex stabilizer agents and targeted small molecules. Complex spheroids include a stromal component modeled by human endothelial cells (HUVEC) and fibroblasts modeled by human mesenchymal stem cells (MSCs). The concentration ranges selected for each drug and investigational agent were based upon clinically achievable concentrations if the clinical Cmax of the agent was known.
Compounds. The drugs and investigational agents: pidnarulex (CX-5461; NSC782164), APTO-253 (NSC789042), BRACO-19 (NSC847499), peposertib (NSC802822), ceralasertib (NSC780249), elimusertib (NSC800525), camonsertib (NSC841442), AZD-1390 (NSC803789), olaparib (NSC753686), talazoparib (NSC767125), ART-558 (NSC835418), sotorasib (NSC818433), MRTX-1133 (NSC836407), SN-38 (NSC673596), topotecan (NSC609699), etoposide (NSC141540), doxorubicin (NSC123127), gemcitabine (NSC613327), 5-fluorouracil (NSC19893), paclitaxel (NSC125973), vemurafenib (NSC761431), panobinostat (NSC761190), R-306465 (JNJ-16241199; NSC773264), adavosertib (NSC754352), TP-3654 (NSC805149), carboplatin (NSC241240), KSQ-4279 (NSC840948), and staurosporine (NSC755774) were obtained from the National Cancer Institute (NCI) Developmental Therapeutics Program Chemical Repository (34). The FDA-approved anticancer drug set is available from the NCI Developmental Therapeutics Program. […] The stock solutions were prepared in dimethyl sulfoxide (DMSO, Sigma-Aldrich, St. Louis, MO, cat. D2650) at 800-fold the tested concentration and stored at -70 degrees C prior to their use. All drugs and investigational agents were tested over a range starting from a high concentration at or near the clinical Cmax and decreasing in half-log increments. If the clinical Cmax for an agent had not been determined, the highest concentration tested was 10 microM.
2.3 Cell Culture. All cells were maintained in an incubator at 37 degrees C and 5% CO2 with 95% humidity. The PDC lines were cultured according to standard operating procedures established by the NCI PDMR. All PDCs were thawed and cultured in Matrigel-coated flasks prepared with a working solution of 1X Ham's F-12 nutrient mix, without supplementation (Invitrogen, cat. 11765054), 100 U/mL penicillin-streptomycin (Invitrogen, cat. 15140122), and 2.5% Matrigel (Corning Inc., cat. 354248) for the first three passages. […]
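Also: spheroids exposed to compounds for seven days before readout; percent viability relative to DMSO vehicle control wells as 100%.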

Compound | viability, T/C (compound alone 0.1 µM) | viability, T/C (compound alone 1 µM) | viability, T/C (compound alone 0.0316 µM) | viability, T/C (compound alone 3.16 µM)
CN(C)c1ccc(Nc2c3ccc(NC(=O)CCN4CCCC4)cc3nc3cc(NC(=O)CCN4CCCC4)ccc23)cc1 | 94.5, 107, 121, 106 (2×), 95.4, 94.6, 98.2, 92.2, 95.7, 91.8, 100% | 89.5, 99.6, 78.8, 101 (2×), 98.3, 103, 90.9, 95.7, 105, 94.5, 96.6% | – | –
Cc1[nH]c2ccc(F)cc2c1-c1nc2c3cccnc3c3ncccc3c2[nH]1 | – | – | 101 (3×), 92.2, 95.4, 93.5, 112, 100, 84.9, 87.1, 92, 93.2% | 68.9, 79.7, 83.7, 81.3, 67.9, 82.4 (2×), 82.6, 73.8, 99, 102, 87.3%
